43 compounds from ChEMBL document CHEMBL4888484, “Replenishing the malaria drug discovery pipeline: Screening and hit evaluation of the MMV Hit Generation Library 1 (HGL1) against asexual blood stage Plasmodium falciparum ,using a nano luciferase reporter read-out” (2022) can be followed below.

SMILES strings stand for the structures. Out of some 150,000 compounds screened, about 540 (0.36%) showed an effect of 50% or more. Some of the results follow.

In this assay the test system is Plasmodium falciparum. Description: Primary screen in NF54 nanoGlo assay, in single point, at 2uM, 72h; a lower Z score goes with more inhibition. It counts as functional, Erythrocyte. Conditions: timepoint 72 hour.
As to `O=C1CN(c2ccc(NC(=O)C3=CCCCC3)cn2)CCN1`, the “% Inhibition” value is -7% and the Z score is given as 0.75.
On the same counts, the results for `COc1cc(-c2onc(C)c2C(=O)N[C@H]2CCC[C@@H]2OCc2ccccc2)cc(OC)c1OC` are -14% and 1.3.
The matching figures for `NC(=O)[C@H]1CCCN(CCNC(=O)Nc2ccc(-c3cn[nH]c3)cc2)C1`: -1% and 0.11.
The matching figures for `O=C(Cn1ncc(=O)c2ccccc21)NCc1ccncc1`: -8% and 1.43.
On to `CCOC(=O)c1c(NC(=O)C2CCOCC2)c2c(F)cccc2n1C`, for which the “% Inhibition” value is given as -8% and the Z score turned out to be 1.47.
Take `CC(C)c1nsc(NCc2cncc(F)c2)n1`: the “% Inhibition” value was -48% and the Z score is reported as 5.67.
Regarding `COc1ccc(CNC(=O)c2ccc(N3C(=O)[C@@H](C)CS3(=O)=O)cc2Cl)cc1OC`, the “% Inhibition” value is recorded as -13% and the Z score is 1.66.
On the same counts, the results for `O=C1NC2(CCN(S(=O)(=O)c3ccccc3)CC2)N=C1c1ccccc1` are -13% and 1.62.
The matching figures for `CCOC(=O)Cc1csc(NC(=O)Cn2cc(OC)c(=O)cc2C)n1`: 3% and -0.42.
On the same counts, the results for `Cc1cc(NC(=O)CCc2nnc[nH]2)n(-c2cc(C(F)(F)F)ccc2Cl)n1` are -12% and 1.74.
In the case of `CCc1noc(Cn2ccc(=O)c3sccc32)n1`, the “% Inhibition” value was found to be 0% and the Z score is listed as -0.09.
The matching figures for `Cc1ccc(Cl)cc1NC(=O)N(C)CCc1noc(C(=O)NCc2ccc(F)cc2)n1`: -4% and 0.35.
With `COC(=O)CN(Cc1ccc2cn[nH]c2c1)C1CCCC1`, the “% Inhibition” value is -6% and the Z score is 0.69.
On the same counts, the results for `Cc1nnc(CNC(=O)Nc2ncc(C(C)C)s2)n1C` are 10% and -1.18.
The matching figures for `COCC[C@]1(NC(=O)c2ccc(F)cc2)CCN(C(=O)Cn2cccn2)C1`: 3% and -0.46.
Take `CC(=O)N1CCC(CC(=O)NCCC2=CCCCC2)(N2Cc3ccccc3C2=O)CC1`: the “% Inhibition” value was -9% and the Z score worked out at 1.31.
On the same counts, the results for `CC(=O)Oc1c(-c2ccc(NC(=O)C(C)C)cc2)c(-c2cccc(F)c2)nn1-c1ccc(C)cc1` are -10% and 1.39.
On the same counts, the results for `CC(C)c1nccc(N2CCC3(CC2)C[C@@H]3C(=O)O)n1` are -13% and 2.64.
The matching figures for `CON(C)CC(O)Cn1cc(NC(=O)C2CC2c2ccc(Br)cc2)cn1` (stereo unspecified): -4% and 0.39.
For `CC(C)(C)C(F)(F)CNC(=O)N1CCC(n2cc(C(N)=O)nn2)CC1`, the “% Inhibition” value is -4% and the Z score turned out to be 0.77.
On the same counts, the results for `C[C@@H](CNC(=O)c1cnn[nH]1)c1ccccc1` are -11% and 2.05.
On the same counts, the results for `CCC(CC)c1n[nH]c2c1CN(C(=O)c1ccc3sc(N)nc3c1)CC2` are -14% and 2.18.
On the same counts, the results for `N/C(=N\c1ccccc1)N1CCOCC1` are 3% and -0.52.
Consider `O=C1C2CCCC[C@H]2c2ccccc2N1Cc1ccccc1` (stereo partly specified), for which the “% Inhibition” value is listed as -11% and the Z score came out at 1.31.
On the same counts, the results for `Cc1ccc([C@@]2(C(=O)N3CCN(CCOCCO)CC3)CC2(C)C)cc1` are 7% and -0.65.
On the same counts, the results for `C[C@@]1(C(=O)NC2CCCCCCC2)Cn2c(ccc2-c2ccccc2)C(=O)N1Cc1cccnc1` are -4% and 0.53.
In the case of `CNS(=O)(=O)CC(=O)NCc1cccc(Cl)c1F`, the “% Inhibition” value is reported as -6% and the Z score amounted to 0.83.
On the same counts, the results for `C#CCN(C)CCNS(=O)(=O)c1ccccc1` are 5% and -0.64.
The matching figures for `Cc1ccc(CN2C(=O)C3CCCCC3C2=O)cc1S(=O)(=O)NCc1ccco1` (stereo unspecified): -10% and 1.37.
The matching figures for `N#CCc1ccc(OCCOn2nnc3ccccc32)cc1`: -3% and 0.64.
For the compound `Cc1cccnc1OC[C@H]1CCCOC1`, the “% Inhibition” value is recorded as -4% and the Z score turned out to be 0.49.
On the same counts, the results for `C[C@@H]1CCO[C@@H]1C(=O)NCC1CCCCC1NS(C)(=O)=O` (stereo partly specified) are -3% and 0.34.
On the same counts, the results for `CC[C@@]1(C)CN(C(=O)CCc2ccccc2C(=O)O)CCO1` are -15% and 1.8.
Turning to `CCN(C(=O)c1ccnc(C(=O)O)c1)[C@@H](C)Cc1ccsc1`, the “% Inhibition” value is -9% and the Z score amounted to 1.15.
On the same counts, the results for `Cc1noc(C)c1CCN1[C@@H]2C[C@H]3CC[C@]2(CS1(=O)=O)C3(C)C` are -10% and 1.29.
On the same counts, the results for `Cc1cc(C)n([C@@H](C)CNC(=O)c2cc(-c3c(C)nn(C)c3C)nn2C)n1` are -12% and 1.3.
For `Cc1c(CC(=O)N2CC[C@H](N)C2)c2c(n1Cc1ccccc1F)CCCC2=O`, the “% Inhibition” value was -22% and the Z score was 2.4.
The matching figures for `C[C@H](NCCN1CCCCC1)c1cc(Br)ccc1F`: -5% and 0.51.
Take `CCN1CCCC1CNC(=O)C(C)c1ccccc1` (stereo unspecified): the “% Inhibition” value amounted to 1% and the Z score is -0.2.
On the same counts, the results for `COCCCNC(=O)[C@@H]1CC2(CCN(C(=O)NCCc3ccccc3)CC2)C(=O)N1C` are -14% and 1.74.
The matching figures for `CCC[C@H]1CN(C(=O)CCC(F)(F)F)C[C@@H]1N(C)C`: -2% and 0.28.
With `N#Cc1cccc(CN2CCCCCCCC2=O)c1`, the “% Inhibition” value was -13% and the Z score is 1.28.
Take `COc1ccc(C)nc1NCc1csc(N(C(C)=O)C2CC2)n1`: the “% Inhibition” value is on record as -9% and the Z score stood at 0.84.
